# Measurements from the supplement of paper PMC8728848.
# The other results are listed elsewhere or left out.
# Tests used:
# Assay in all cases: glycan array binding signal (z-score within array); higher = stronger binding
# Conditions in all cases: glycan notation: IUPAC condensed, linker removed
# [1] = target: Gal(a1-3)Gal(b1-4)GlcNAc
# Method in brief: (§1)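 Glycan array data were curated from 3228 arrays in the Consortium for Functional Glycomics database and kept only where the protein sequence was available. Glycan names were converted to IUPAC-condensed notation, and columns mapping to the same glycan were averaged. The binding signal is a within-array Z-score, averaged across arrays of the same protein sequence at different concentrations or buffers and across linkers. Negative Z-scores can be read as non-binding.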
# [2] = target: Gal(a1-3)Gal(b1-4)GlcNAc(b1-2)Man
# Method in brief: as §1
# [3] = target: Gal(a1-3)Gal(b1-4)GlcNAc(b1-2)Man(a1-3)[Gal(a1-3)Gal(b1-4)GlcNAc(b1-2)Man(a1-6)]Man(b1-4)GlcNAc(b1-4)GlcNAc
# Method in brief: as §1
# [4] = target: Gal(a1-3)Gal(b1-4)GlcNAc(b1-3)GalNAc
# Method in brief: as §1
# [5] = target: Gal(a1-3)Gal(b1-4)GlcNAc(b1-6)GalNAc
# Method in brief: as §1
# [6] = target: Gal(a1-3)Gal(b1-4)[Fuc(a1-3)]GlcNAc
# Method in brief: as §1
# [7] = target: Gal(a1-3)Gal(b1-4)[Fuc(a1-3)]GlcNAc(b1-2)Man(a1-3)[Gal(a1-3)Gal(b1-4)[Fuc(a1-3)]GlcNAc(b1-2)Man(a1-6)]Man(b1-4)GlcNAc(b1-4)GlcNAc
# Method in brief: as §1
# [8] = target: Gal(a1-3)GalNAc
# Method in brief: as §1
# [9] = target: Gal(a1-3)[Gal(a1-4)]Gal(b1-4)GlcNAc
# Method in brief: as §1
# [10] = target: Gal(a1-4)Gal(b1-3)GlcNAc(b1-2)Man(a1-3)[Gal(a1-4)Gal(b1-3)GlcNAc(b1-2)Man(a1-6)]Man(b1-4)GlcNAc(b1-4)GlcNAc
# Method in brief: as §1
# [11] = target: Gal(a1-4)Gal(b1-4)Glc
# Method in brief: as §1
# [12] = target: Gal(a1-4)Gal(b1-4)GlcNAc
# Method in brief: as §1
# [13] = target: Gal(a1-4)Gal(b1-4)GlcNAc(b1-2)Man(a1-3)[Gal(a1-4)Gal(b1-4)GlcNAc(b1-2)Man(a1-6)]Man(b1-4)GlcNAc(b1-4)GlcNAc
# Method in brief: as §1
# [14] = target: Gal(a1-4)Gal(b1-4)GlcNAc(b1-3)Gal(b1-4)Glc
# Method in brief: as §1
# [15] = target: Gal(a1-4)GlcNAc
# Method in brief: as §1
# [16] = target: Gal(a1-6)Glc
# Method in brief: as §1
# [17] = target: Gal(b1-2)Gal
# Method in brief: as §1
# [18] = target: Gal(b1-3)Gal
# Method in brief: as §1
# [19] = target: Gal(b1-3)Gal(b1-4)GlcNAc
# Method in brief: as §1
# [20] = target: Gal(b1-3)GalNAc
# Method in brief: as §1
# [21] = target: Gal(b1-3)GalNAc(a1-3)[Fuc(a1-2)]Gal(b1-4)Glc
# Method in brief: as §1
# [22] = target: Gal(b1-3)GalNAc(a1-3)[Fuc(a1-2)]Gal(b1-4)GlcNAc
# Method in brief: as §1
# [23] = target: Gal(b1-3)GalNAc(b1-3)Gal
# Method in brief: as §1
# [24] = target: Gal(b1-3)GalNAc(b1-3)Gal(a1-4)Gal(b1-4)Glc
# Method in brief: as §1
# [25] = target: Gal(b1-3)GalNAc(b1-4)Gal(b1-4)Glc
# Method in brief: as §1
# [26] = target: Gal(b1-3)GalNAc(b1-4)[Neu5Ac(a2-3)]Gal(b1-4)Glc
# Method in brief: as §1
# [27] = target: Gal(b1-3)GlcNAc
# Method in brief: as §1
# [28] = target: Gal(b1-3)GlcNAc(a1-3)Gal(b1-4)GlcNAc
# Method in brief: as §1
# [29] = target: Gal(b1-3)GlcNAc(a1-6)Gal(b1-4)GlcNAc
# Method in brief: as §1
# [30] = target: Gal(b1-3)GlcNAc(b1-2)Man
# Method in brief: as §1
# [31] = target: Gal(b1-3)GlcNAc(b1-2)Man(a1-3)[Gal(b1-3)GlcNAc(b1-2)Man(a1-6)]Man(b1-4)GlcNAc(b1-4)GlcNAc
# Method in brief: as §1
# [32] = target: Gal(b1-3)GlcNAc(b1-2)Man(a1-3)[Gal(b1-3)GlcNAc(b1-2)Man(a1-6)]Man(b1-4)GlcNAc(b1-4)[Fuc(a1-6)]GlcNAc
# Method in brief: as §1
# [33] = target: Gal(b1-3)GlcNAc(b1-2)Man(a1-3)[GlcNAc(b1-4)][Gal(b1-3)GlcNAc(b1-2)Man(a1-6)]Man(b1-4)GlcNAc(b1-4)GlcNAc
# Method in brief: as §1
# [34] = target: Gal(b1-3)GlcNAc(b1-2)[Gal(b1-3)GlcNAc(b1-6)]Man(a1-6)[Gal(b1-3)GlcNAc(b1-2)Man(a1-3)]Man(b1-4)GlcNAc(b1-4)GlcNAc
# Method in brief: as §1
# [35] = target: Gal(b1-3)GlcNAc(b1-3)Gal(b1-3)GlcNAc
# Method in brief: as §1
# [36] = target: Gal(b1-3)GlcNAc(b1-3)Gal(b1-4)Glc
# Method in brief: as §1
# [37] = target: Gal(b1-3)GlcNAc(b1-3)Gal(b1-4)GlcNAc
# Method in brief: as §1
binder,measurement,setting,value
DC-ASGPR S+GEE (Homo sapiens) (protein) MTRTYENFQYLENKVKVQGFKNGPLPLQSLLQRLRSGPCHLLLSLGLGLLLLVIICVVGFQNSKFQRDLVTLRTDFSNFTSNTVAEIQALTSQGSSLEETIASLKAEVEGFKQERQAVHSEMLLRVQQLVQDLKKLTCQVATINNNGEEASTEGTCCPVNWVEHQDSCYWFSHSGMSWAEAEKYCQLKNAHLVVINSREEQNFVQKYLGSAYTWMGLSDPEGAWKWVDGTDYATGFQNWKPGQPDDWQGHGLGGGEDCAHFHPDGRWNDDVCQRPYHWVCEAGLGQTSQESH,glycan array binding signal (z-score),[1],-0.348
same,glycan array binding signal (z-score),[2],-0.458
same,glycan array binding signal (z-score),[3],-0.323
same,glycan array binding signal (z-score),[4],-0.313
same,glycan array binding signal (z-score),[5],3.92
same,glycan array binding signal (z-score),[6],-0.331
same,glycan array binding signal (z-score),[7],-0.257
same,glycan array binding signal (z-score),[8],-0.118
same,glycan array binding signal (z-score),[9],-0.299
same,glycan array binding signal (z-score),[10],-0.409
same,glycan array binding signal (z-score),[11],-0.124
same,glycan array binding signal (z-score),[12],-0.216
same,glycan array binding signal (z-score),[13],-0.323
same,glycan array binding signal (z-score),[14],-0.361
same,glycan array binding signal (z-score),[15],-0.343
same,glycan array binding signal (z-score),[16],-0.264
same,glycan array binding signal (z-score),[17],-0.325
same,glycan array binding signal (z-score),[18],-0.306
same,glycan array binding signal (z-score),[19],-0.245
same,glycan array binding signal (z-score),[20],-0.328
same,glycan array binding signal (z-score),[21],-0.347
same,glycan array binding signal (z-score),[22],-0.35
same,glycan array binding signal (z-score),[23],-0.24
same,glycan array binding signal (z-score),[24],1.86
same,glycan array binding signal (z-score),[25],-0.19
same,glycan array binding signal (z-score),[26],1.47
same,glycan array binding signal (z-score),[27],0.304
same,glycan array binding signal (z-score),[28],-0.339
same,glycan array binding signal (z-score),[29],-0.198
same,glycan array binding signal (z-score),[30],-0.291
same,glycan array binding signal (z-score),[31],-0.319
same,glycan array binding signal (z-score),[32],-0.359
same,glycan array binding signal (z-score),[33],-0.329
same,glycan array binding signal (z-score),[34],-0.442
same,glycan array binding signal (z-score),[35],-0.281
same,glycan array binding signal (z-score),[36],-0.321
same,glycan array binding signal (z-score),[37],-0.38
